# Assay results as given in the supplement of paper PMC8728848.
# The other results are listed elsewhere or left out.
# B1: Neuropilin-1 (Homo sapiens), O14786 (protein)
# chain: FKCMEALGMESGEIHSDQITASSQYSTNWSAERSRLNYPENGWTPGEDSYREWIQVDLGLLRFVTAVGTQGAISKETKKKYYVKTYKIDVSSNGEDWITIKEGNKPVLFQGNTNPTDVVVAVFPKPLITRFVRIKPATWETGISMRFEVYGCKITDYPCSGMLGMVSGLISDSQITSSNQGDRNWMPENIRLVTSRSGWALPPAPHSYINEWLQIDLGEEKIVRGIIIQGGKHRENKVFMRKFKIGYSNNGSDWKMIMDDSKRKAKSFEGNNNYDTPELRTFPALSTRFIRIYPERATHGGLGLRMELLGCEVE
# Columns and labels:
# Test in all cases: glycan array binding signal (z-score within array); higher = stronger binding
# Settings in all cases: glycan notation: IUPAC condensed, linker removed
# [1] = target: Neu5Ac(a2-3)Gal(b1-4)[Fuc(a1-3)]GlcNAc(b1-3)Gal
# How it was run: (§1)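 The binding signal is a Z-score computed within each array. Data were drawn from 3228 arrays in the Consortium for Functional Glycomics database, restricted to those with a known protein sequence. Scores were averaged over arrays of the same protein sequence at different concentrations or buffers, and over linkers, and negative values can be taken as non-binding.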
# [2] = target: Neu5Ac(a2-3)Gal(b1-4)[Fuc(a1-3)]GlcNAc(b1-3)Gal(b1-4)GlcNAc
# How it was run: as §1
# [3] = target: Neu5Ac(a2-3)Gal(b1-4)[Fuc(a1-3)]GlcNAc(b1-3)Gal(b1-4)[Fuc(a1-3)]GlcNAc(b1-3)Gal(b1-4)[Fuc(a1-3)]GlcNAc
# How it was run: as §1
# [4] = target: Neu5Ac(a2-3)Gal(b1-4)[Fuc(a1-3)]GlcNAc(b1-3)GalNAc
# How it was run: as §1
# [5] = target: Neu5Ac(a2-3)Gal(b1-4)[Fuc(a1-3)]GlcNAc(b1-6)[Gal(b1-3)]GalNAc
# How it was run: as §1
# [6] = target: Neu5Ac(a2-3)Gal(b1-4)[Fuc(a1-3)]GlcNAc(b1-6)[Neu5Ac(a2-3)Gal(b1-3)]GalNAc
# How it was run: as §1
# [7] = target: Neu5Ac(a2-3)Gal(b1-4)[Fuc(a1-3)]GlcNAc6S
# How it was run: as §1
# [8] = target: Neu5Ac(a2-3)Gal6S(b1-4)GlcNAc
# How it was run: as §1
# [9] = target: Neu5Ac(a2-3)Gal6S(b1-4)[Fuc(a1-3)]GlcNAc
# How it was run: as §1
# [10] = target: Neu5Ac(a2-3)GalNAc
# How it was run: as §1
# [11] = target: Neu5Ac(a2-3)GalNAc(b1-4)GlcNAc
# How it was run: as §1
# [12] = target: Neu5Ac(a2-3)[GalNAc(b1-4)]Gal(b1-4)Glc
# How it was run: as §1
# [13] = target: Neu5Ac(a2-3)[GalNAc(b1-4)]Gal(b1-4)GlcNAc
# How it was run: as §1
# [14] = target: Neu5Ac(a2-3)[Neu5Ac(a2-6)]GalNAc
# How it was run: as §1
# [15] = target: Neu5Ac(a2-6)Gal
# How it was run: as §1
# [16] = target: Neu5Ac(a2-6)Gal(b1-4)Glc
# How it was run: as §1
# [17] = target: Neu5Ac(a2-6)Gal(b1-4)GlcNAc
# How it was run: as §1
# [18] = target: Neu5Ac(a2-6)Gal(b1-4)GlcNAc(b1-2)Man(a1-3)Man(b1-4)GlcNAc(b1-4)GlcNAc
# How it was run: as §1
# [19] = target: Neu5Ac(a2-6)Gal(b1-4)GlcNAc(b1-2)Man(a1-3)[Gal(b1-4)GlcNAc(b1-2)Man(a1-6)]Man(b1-4)GlcNAc(b1-4)GlcNAc
# How it was run: as §1
# [20] = target: Neu5Ac(a2-6)Gal(b1-4)GlcNAc(b1-2)Man(a1-3)[GlcNAc(b1-2)Man(a1-6)]Man(b1-4)GlcNAc(b1-4)GlcNAc
# How it was run: as §1
# [21] = target: Neu5Ac(a2-6)Gal(b1-4)GlcNAc(b1-2)Man(a1-3)[GlcNAc(b1-2)Man(b1-4)GlcNAc(b1-2)Man(a1-6)]Man(b1-4)GlcNAc(b1-4)GlcNAc
# How it was run: as §1
# [22] = target: Neu5Ac(a2-6)Gal(b1-4)GlcNAc(b1-2)Man(a1-3)[Man(a1-6)]Man(b1-4)GlcNAc(b1-4)GlcNAc
# How it was run: as §1
# [23] = target: Neu5Ac(a2-6)Gal(b1-4)GlcNAc(b1-2)Man(a1-3)[Neu5Ac(a2-6)Gal(b1-4)GlcNAc(b1-2)Man(a1-6)]Man(b1-4)GlcNAc(b1-4)GlcNAc
# How it was run: as §1
# [24] = target: Neu5Ac(a2-6)Gal(b1-4)GlcNAc(b1-2)Man(a1-6)Man(b1-4)GlcNAc(b1-4)GlcNAc
# How it was run: as §1
# [25] = target: Neu5Ac(a2-6)Gal(b1-4)GlcNAc(b1-2)Man(a1-6)[Gal(b1-4)GlcNAc(b1-2)Man(a1-3)]Man(b1-4)GlcNAc(b1-4)GlcNAc
# How it was run: as §1
# [26] = target: Neu5Ac(a2-6)Gal(b1-4)GlcNAc(b1-2)Man(a1-6)[GlcNAc(b1-2)Man(a1-3)]Man(b1-4)GlcNAc(b1-4)GlcNAc
# How it was run: as §1
# [27] = target: Neu5Ac(a2-6)Gal(b1-4)GlcNAc(b1-2)Man(a1-6)[Man(a1-3)]Man(b1-4)GlcNAc(b1-4)GlcNAc
# How it was run: as §1
# [28] = target: Neu5Ac(a2-6)Gal(b1-4)GlcNAc(b1-3)Gal(b1-3)GlcNAc
# How it was run: as §1
# [29] = target: Neu5Ac(a2-6)Gal(b1-4)GlcNAc(b1-3)Gal(b1-4)GlcNAc
# How it was run: as §1
# [30] = target: Neu5Ac(a2-6)Gal(b1-4)GlcNAc(b1-3)Gal(b1-4)GlcNAc(b1-3)Gal(b1-4)GlcNAc
# How it was run: as §1
# [31] = target: Neu5Ac(a2-6)Gal(b1-4)GlcNAc(b1-3)Gal(b1-4)[Fuc(a1-3)]GlcNAc(b1-3)Gal(b1-4)[Fuc(a1-3)]GlcNAc
# How it was run: as §1
# [32] = target: Neu5Ac(a2-6)Gal(b1-4)GlcNAc(b1-3)GalNAc
# How it was run: as §1
# [33] = target: Neu5Ac(a2-6)Gal(b1-4)GlcNAc6S
# How it was run: as §1
# [34] = target: Neu5Ac(a2-6)GalNAc
# How it was run: as §1
# [35] = target: Neu5Ac(a2-6)GalNAc(b1-4)GlcNAc
# How it was run: as §1
# [36] = target: Neu5Ac(a2-6)GlcNAc(b1-4)GlcNAc
# How it was run: as §1
# [37] = target: Neu5Ac(a2-6)GlcNAc(b1-4)GlcNAc(b1-4)GlcNAc
# How it was run: as §1
# [38] = target: Neu5Ac(a2-8)Neu5Ac
# How it was run: as §1
# [39] = target: Neu5Ac(a2-8)Neu5Ac(a2-3)Gal(b1-4)Glc
# How it was run: as §1
# [40] = target: Neu5Ac(a2-8)Neu5Ac(a2-3)[GalNAc(b1-4)]Gal(b1-4)Glc
# How it was run: as §1
# [41] = target: Neu5Ac(a2-8)Neu5Ac(a2-8)Neu5Ac
# How it was run: as §1
# [42] = target: Neu5Ac(a2-8)Neu5Ac(a2-8)Neu5Ac(a2-3)Gal(b1-4)Glc
# How it was run: as §1
# [43] = target: Neu5Ac(a2-8)Neu5Ac(a2-8)Neu5Ac(a2-3)[GalNAc(b1-4)]Gal(b1-4)Glc
# How it was run: as §1
# [44] = target: Neu5Ac(a2-8)Neu5Ac(a2-8)Neu5Ac(a2-8)Neu5Ac(a2-3)[GalNAc(b1-4)]Gal(b1-4)Glc
# How it was run: as §1
# [45] = target: Neu5Ac(b2-6)Gal(b1-4)GlcNAc
# How it was run: as §1
# [46] = target: Neu5Ac(b2-6)GalNAc
# How it was run: as §1
# [47] = target: Neu5Ac9Ac(a2-3)Gal(b1-3)GlcNAc
# How it was run: as §1
# [48] = target: Neu5Ac9Ac(a2-3)Gal(b1-4)GlcNAc
# How it was run: as §1
# [49] = target: Neu5Ac9Ac(a2-6)Gal(b1-4)GlcNAc
# How it was run: as §1
# [50] = target: Neu5Gc(a2-3)Gal(b1-3)GlcNAc
# How it was run: as §1
# [51] = target: Neu5Gc(a2-3)Gal(b1-3)[Fuc(a1-4)]GlcNAc
# How it was run: as §1
# [52] = target: Neu5Gc(a2-3)Gal(b1-4)Glc
# How it was run: as §1
# [53] = target: Neu5Gc(a2-3)Gal(b1-4)GlcNAc
# How it was run: as §1
# [54] = target: Neu5Gc(a2-3)Gal(b1-4)[Fuc(a1-3)]GlcNAc
# How it was run: as §1
# [55] = target: Neu5Gc(a2-6)Gal(b1-4)GlcNAc
# How it was run: as §1
# [56] = target: Neu5Gc(a2-6)GalNAc
# How it was run: as §1
# [57] = target: Neu5Gc(b2-6)Gal(b1-4)GlcNAc
# How it was run: as §1
binder,measurement,setting,value
B1,glycan array binding signal (z-score),[1],-0.267
same,glycan array binding signal (z-score),[2],1.46
same,glycan array binding signal (z-score),[3],0.049
same,glycan array binding signal (z-score),[4],2.8
same,glycan array binding signal (z-score),[5],0.942
same,glycan array binding signal (z-score),[6],1.69
same,glycan array binding signal (z-score),[7],-0.263
same,glycan array binding signal (z-score),[8],0.037
same,glycan array binding signal (z-score),[9],-0.303
same,glycan array binding signal (z-score),[10],0.154
same,glycan array binding signal (z-score),[11],-0.169
same,glycan array binding signal (z-score),[12],-0.201
same,glycan array binding signal (z-score),[13],-0.198
same,glycan array binding signal (z-score),[14],-0.224
same,glycan array binding signal (z-score),[15],-0.197
same,glycan array binding signal (z-score),[16],-0.244
same,glycan array binding signal (z-score),[17],-0.254
same,glycan array binding signal (z-score),[18],-0.314
same,glycan array binding signal (z-score),[19],-0.208
same,glycan array binding signal (z-score),[20],-0.282
same,glycan array binding signal (z-score),[21],-0.323
same,glycan array binding signal (z-score),[22],-0.151
same,glycan array binding signal (z-score),[23],-0.224
same,glycan array binding signal (z-score),[24],-0.223
same,glycan array binding signal (z-score),[25],-0.208
same,glycan array binding signal (z-score),[26],-0.278
same,glycan array binding signal (z-score),[27],-0.341
same,glycan array binding signal (z-score),[28],-0.242
same,glycan array binding signal (z-score),[29],-0.295
same,glycan array binding signal (z-score),[30],-0.079
same,glycan array binding signal (z-score),[31],-0.266
same,glycan array binding signal (z-score),[32],0.061
same,glycan array binding signal (z-score),[33],-0.28
same,glycan array binding signal (z-score),[34],-0.228
same,glycan array binding signal (z-score),[35],-0.22
same,glycan array binding signal (z-score),[36],-0.318
same,glycan array binding signal (z-score),[37],-0.271
same,glycan array binding signal (z-score),[38],-0.158
same,glycan array binding signal (z-score),[39],-0.206
same,glycan array binding signal (z-score),[40],-0.292
same,glycan array binding signal (z-score),[41],-0.212
same,glycan array binding signal (z-score),[42],-0.283
same,glycan array binding signal (z-score),[43],-0.266
same,glycan array binding signal (z-score),[44],0.095
same,glycan array binding signal (z-score),[45],-0.315
same,glycan array binding signal (z-score),[46],-0.208
same,glycan array binding signal (z-score),[47],-0.249
same,glycan array binding signal (z-score),[48],-0.26
same,glycan array binding signal (z-score),[49],-0.196
same,glycan array binding signal (z-score),[50],-0.236
same,glycan array binding signal (z-score),[51],-0.214
same,glycan array binding signal (z-score),[52],-0.142
same,glycan array binding signal (z-score),[53],-0.287
same,glycan array binding signal (z-score),[54],-0.202
same,glycan array binding signal (z-score),[55],-0.225
same,glycan array binding signal (z-score),[56],-0.273
same,glycan array binding signal (z-score),[57],-0.198
